# Results as given in PubChem BioAssay AID493208 (National Center for Advancing Translational Sciences (NCATS), 2011).
# Out of some 44,000 compounds screened, about 340 (0.77%) were called active. About 5% were inconclusive and are not listed. Calls come from the whole dose curve; as a rule, active = well fitted inhibition curve with a large enough effect; inconclusive = small, poorly fitted or top-dose-only effect; inactive = flat fitted curve, though single readings scatter. Some of the results follow.
# Assay: Acumen qHTS Assay for Inhibitors of the mTORC1 Signaling Pathway in MEF (Tsc2-/-, p53-/-) Cells: Sytravon;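 note: plate controls were DMSO for no effect and rapamycin for full effect; nearly all actives have a fitted effect of over 50% in size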
# Settings: phospho-rpS6 immunofluorescence/PI, 24 h; series mostly up to 38.3 µM; activity change, negative = inhibition: at the top concentration
# Method in brief: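 Immunofluorescence of rpS6 phosphorylation in Tsc2-/-, p53-/- MEFs after 24 h compound exposure, normalized to propidium iodide signal. Activity is expressed as % positive cells, thresholded with 7.5 nM rapamycin.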
row,SMILES,"activity change, negative = inhibition"
1,CCN(CC)C(=O)c1sc2c(c1C)c(=O)n(Cc1ccccc1)c(=O)n2CC(=O)Nc1ccc(OC)cc1,inactive: -2.2%
2,COc1ccccc1NC(=O)CCNS(=O)(=O)c1ccc2c(c1)CCN2C(=O)C1CC1,inactive: -17.8%
3,COC(=O)c1ccc(-n2nnc(-c3nsc(NC(=O)c4ccc(Cl)cc4)n3)c2C)cc1,inactive: 0.163%
4,O=c1c(NCCc2ccc(Cl)cc2)nccn1-c1ccccc1,inactive: 5.76%
5,COc1ccc(OC)c(CCNC(=O)c2cc3cccc4c3n2CCS4)c1,inactive: -11.7%
6,Cc1ccc(C)c(N2CCN(S(=O)(=O)c3ccc(F)c(C(=O)Nc4ccc(Cl)cc4Cl)c3)CC2)c1,inactive: 10.5%
7,Cc1cc2n(n1)CCCN2C(=O)Nc1ccc(C)c(Cl)c1,inactive: -4.81%
8,CN(c1ccccc1)S(=O)(=O)c1nnc(NC(=O)c2cccs2)s1,inactive: 1.01%
9,CCN(Cc1ccccc1)C(=O)CCS(=O)(=O)c1cc(Br)cc2c1N(C(=O)C1CC1)CC2,inactive: -3.21%
10,CCOC(=O)c1c(C)oc2ccc(N(C(=O)c3ccncc3)S(=O)(=O)c3ccc(F)cc3)cc12,inactive: 5.68%
11,CCOc1ccccc1NC(=O)Cn1c(=O)n(CCCCC(=O)NCCCOC)c(=O)c2ccccc21,inactive: 2.95%
12,Cc1ccc2[nH]c3c(=O)n(CC(=O)NCCCN4CCN(c5ccc(F)cc5)CC4)ncc3c2c1,inactive: 4.42%
13,CCc1ccccc1N(C)C(=O)c1cc2c(Cl)nc3ccc(C)cc3c2s1,inactive: -1.52%
14,O=C(NCc1cccc(F)c1)C1CCN(c2nn3cc(-c4ccc(F)cc4)nc3s2)CC1,inactive: 5.06%
15,CCc1ccc(NC(=O)Cn2nnc(C(=O)NCCc3ccccc3)c2N)cc1,inactive: 4.17%
16,Cc1ccccc1CNCCSc1nnnn1C,inactive: -0.262%
17,CC1CCN(S(=O)(=O)c2ccc3c(c2)oc(=O)n3CC(=O)N2CCCCC2)CC1,inactive: -3.35%
18,O=C(Nc1ccc(O)c(-c2nc3ccccc3o2)c1)c1ccc(-c2cccc(Cl)c2)o1,inactive: 3.04%
19,Cc1cccc(C)c1NC(=O)c1nc(SC(C)C)ncc1Cl,inactive: 0.587%
20,Cc1cc(C)cc(N(CC(=O)Nc2ccc(C)cc2Cl)S(=O)(=O)c2c(C)[nH]c(=O)[nH]c2=O)c1,inactive: -20%
21,COCCCNC(=O)C1CCN(C(=O)c2ccc(-n3ccc4ccccc43)s2)CC1,inactive: -5.9%
22,Cc1ccccc1Nc1c(-c2ccc(O)cc2)nc2c(C)cccn12,inactive: -7.41%
23,COc1cccc(CNC(=O)CSc2nnc(C)c3c(C)n(-c4ccccc4)nc23)c1,inactive: -14%
24,COc1ccc(NC(=O)CCS(=O)(=O)c2cc3c4c(c2)CCN4C(=O)CC3)cc1OC,inactive: -4.26%

row,SMILES,"activity change, negative = inhibition"
1,CCC(C(=O)Nc1ccc(F)cc1F)n1nc(-c2ccccc2)c2c(c1=O)CCCC2 (stereo not drawn),inactive: 1.33%
2,COc1ccc(NC(=O)c2ccco2)cc1NC(=O)COc1cc(C)ccc1C(C)C,inactive: -18%
3,CC(=O)N1c2ccccc2CC1C(=O)N1CCN(c2cc(Cl)ccc2C)CC1 (stereo not drawn),inactive: 18.6%
4,Cc1nc(N)c(S(=O)(=O)c2ccccc2)c(Nc2ccc(Br)cc2)n1,inactive: -0.939%
5,COc1ccc(Cl)cc1S(=O)(=O)N1CCC(c2ccncc2)CC1,inactive: -0.976%
6,O=C(c1cccn1-c1nnc(N2CCCC2)s1)N1CCN(c2ccc(F)cc2)CC1,inactive: 0%
7,Cc1cccc(OCC(=O)NCc2ccc3c(c2)CCN3C(=O)c2ccc(Cl)cc2)c1,inactive: -8.2%
8,CCOc1ccc(NC(=O)c2c(NC(=O)c3ccncc3)sc3c2CCC(C(C)(C)C)C3)cc1 (stereo not drawn),inactive: -8.28%
9,O=C(c1ccc(F)cc1)N1CCN(CCc2ccncc2)CC1,inactive: -3.59%
10,COc1ccc(-c2nnc(SCC(=O)Nc3ccc(C)c(Cl)c3)nc2-c2ccc(OC)c(OC)c2)cc1OC,inactive: -5.4%
11,CC(=O)Nc1ccc(NC(=O)CN2C(=O)CCc3cc(S(=O)(=O)N4CCCCC4)ccc32)cc1,inactive: 0%
12,Cc1cccc(CNC(=O)CN2CC(C)Sc3ccccc32)c1 (stereo not drawn),inactive: 2.71%
13,COc1cccc(NC2=CC(c3ccc(C(C)C)cc3)N(c3cccc(OC)c3)C2=O)c1 (stereo not drawn),inactive: -3.96%
14,Cc1c(Cl)cccc1-n1nnc(-c2nc(-c3ccc4c(c3)OCO4)no2)c1C,inactive: -11.8%
15,COc1ccc(C)cc1NS(=O)(=O)c1cc(Br)cc2c1N(C(C)=O)C(C)C2 (stereo not drawn),inactive: 4.2%
16,Cc1c(C(=O)N(Cc2cccc(Cl)c2)Cc2ccco2)oc2ccccc12,inactive: 3.65%
17,CCOC(=O)c1cc(-c2ccccc2)n(-c2cccc(C(=O)NC(C)(C)C)c2)c1C,inactive: -12.6%
18,CCOc1ccc(S(=O)(=O)NCc2cccn2Cc2cccc(C)c2)cc1,inactive: 11.4%
19,CC(C)COc1ccc(C(=O)N(Cc2cccc(F)c2)C2CCS(=O)(=O)C2)cc1 (stereo not drawn),inactive: 0.359%
20,CCCn1c(=N)c(C(=O)NC2CCCCC2)cc2c(=O)n3cc(C)ccc3nc21,inactive: 7.46%
21,CCc1cccc(C)c1NC(=O)C(NS(=O)(=O)c1ccc2c(c1)CCC(=O)N2)c1ccccc1 (stereo not drawn),inactive: 1.14%
22,CCN1CCc2c(sc(-n3cccc3)c2C(CCC(C)C)NC(=O)NCCC(=O)OC)C1 (stereo not drawn),inactive: 2.83%
23,CCCn1c2ccccc2c2cnn(CC(=O)NCCCOC(C)C)c(=O)c21,inactive: -14.4%
24,Cc1ccc(C)c(N2CCN(C(c3ccccc3)c3nnc(-c4ccccc4)o3)CC2)c1 (stereo not drawn),inactive: -14.1%
